Reference: the supplement of paper PMC4604168 (melanoma cell lines)
The other results are listed elsewhere or left out. Many values rest on one well or one pass, so single values are uncertain.

system: 501Mel; assay: cell count relative to DMSO control; melanoma cells; higher = more viable cells; details: library dose: standard library concentration; 72 h
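Also: cells treated in 1,536-well plates, then fixed and DAPI-stained, with nuclei counted from automated high-throughput microscope images.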

SMILES	cell count
CO[C@H]1C[C@@H]2CC[C@@H](C)[C@@](O)(O2)C(=O)C(=O)N2CCCC[C@H]2C(=O)O[C@H]([C@H](C)C[C@@H]2CC[C@@H](OCCO)[C@H](OC)C2)CC(=O)[C@H](C)/C=C(\C)[C@@H](O)[C@@H](OC)C(=O)[C@H](C)C[C@H](C)/C=C/C=C/C=C/1C [everolimus] + C/C(O)=C(\C#N)C(=O)Nc1cc(Br)ccc1Br [LFM-A13] (first compound 0.1 µM, partner dose 10 µM)	67.3%
C=CCn1c(=O)c2cnc(Nc3ccc(N4CCN(C)CC4)cc3)nc2n1-c1cccc(C(C)(C)O)n1 + O=C(Oc1ccc([N+](=O)[O-])cc1)N1CCC(C(O)(c2ccc3c(c2)OCO3)c2ccc3c(c2)OCO3)CC1 [JZL184] (first compound 0.1 µM, partner dose 5 µM)	62.1%
O=C(CCCCCCC(=O)Nc1ccccc1)NO [vorinostat] + C/C(O)=C(\C#N)C(=O)Nc1cc(Br)ccc1Br [LFM-A13] (first compound 0.4 µM, partner dose 10 µM)	60.1%
Clc1ccc(Nc2nnc(Cc3ccncc3)c3ccccc23)cc1 [vatalanib] + O=C(Oc1ccc([N+](=O)[O-])cc1)N1CCC(C(O)(c2ccc3c(c2)OCO3)c2ccc3c(c2)OCO3)CC1 [JZL184] (first compound 10 µM, partner dose 5 µM)	65.2%
CO[C@H]1C[C@@H]2CC[C@@H](C)[C@@](O)(O2)C(=O)C(=O)N2CCCC[C@H]2C(=O)O[C@H]([C@H](C)C[C@@H]2CC[C@@H](OCCO)[C@H](OC)C2)CC(=O)[C@H](C)/C=C(\C)[C@@H](O)[C@@H](OC)C(=O)[C@H](C)C[C@H](C)/C=C/C=C/C=C/1C [everolimus] + Cc1cc(SCc2sc(-c3ccc(C(F)(F)F)c(F)c3)nc2C)ccc1OCC(=O)O [GW0742] (first compound 0.1 µM, partner dose 10 µM)	78%
C#Cc1cccc(Nc2ncnc3cc(OCCOC)c(OCCOC)cc23)c1 [erlotinib] + C/C(O)=C(\C#N)C(=O)Nc1cc(Br)ccc1Br [LFM-A13] (first compound 4 µM, partner dose 10 µM)	101%
O=C(O)C(=O)Nc1sc2c(c1C(=O)O)CCNC2 + O=C(Oc1ccc([N+](=O)[O-])cc1)N1CCC(C(O)(c2ccc3c(c2)OCO3)c2ccc3c(c2)OCO3)CC1 [JZL184] (first compound 8.33333 µM, partner dose 5 µM)	95.9%
Cc1cc(Nc2cc(N3CCN(C)CC3)nc(Sc3ccc(NC(=O)C4CC4)cc3)n2)n[nH]1 [Tozasertib] + O=C(Oc1ccc([N+](=O)[O-])cc1)N1CCC(C(O)(c2ccc3c(c2)OCO3)c2ccc3c(c2)OCO3)CC1 [JZL184] (first compound 0.03 µM, partner dose 5 µM)	94.5%
CC(C)C[C@H](NC(=O)[C@H](Cc1ccccc1)NC(=O)c1cnccn1)B(O)O [Bortezomib] + O=C(Oc1ccc([N+](=O)[O-])cc1)N1CCC(C(O)(c2ccc3c(c2)OCO3)c2ccc3c(c2)OCO3)CC1 [JZL184] (first compound 0.005 µM, partner dose 5 µM)	7.75%
Nc1ccn([C@@H]2O[C@H](CO)[C@@H](O)C2(F)F)c(=O)n1 [gemcitabine] + C/C(O)=C(\C#N)C(=O)Nc1cc(Br)ccc1Br [LFM-A13] (first compound 0.002 µM, partner dose 10 µM)	84.7%
O=C1NC(=O)/C(=C/c2ccc(-c3ccc(F)cc3O)o2)S1 + O=C(Oc1ccc([N+](=O)[O-])cc1)N1CCC(C(O)(c2ccc3c(c2)OCO3)c2ccc3c(c2)OCO3)CC1 [JZL184] (first compound 5 µM, partner dose 5 µM)	80.1%
Cn1c(Nc2ccc(C(F)(F)F)cc2)nc2cc(Oc3ccnc(-c4ncc(C(F)(F)F)[nH]4)c3)ccc21 + C/C(O)=C(\C#N)C(=O)Nc1cc(Br)ccc1Br [LFM-A13] (first compound 0.4 µM, partner dose 10 µM)	45.9%
COCC[n+]1c2c(n(Cc3cnccn3)c1C)C(=O)c1ccccc1C2=O + C/C(O)=C(\C#N)C(=O)Nc1cc(Br)ccc1Br [LFM-A13] (first compound 0.002 µM, partner dose 10 µM)	86.6%
